Measurements as given in PubChem BioAssay AID1508623 (National Center for Advancing Translational Sciences (NCATS), 2021).
Hit rate of the full screen: of about 48,000 compounds, about 450 (0.94%) were called active. Not shown: some 19% with an inconclusive outcome. Calls come from the whole dose curve; as a rule, active = well fitted inhibition curve with a large enough effect; inconclusive = small, poorly fitted or top-dose-only effect; inactive = no such curve, though single readings can be large or run the other way. This is one part of the list.

Assay: Primary qHTS for Identification of Small Molecule Inhibitors of Huntingtin Promoter Activity; note: nearly all actives have a fitted effect of over 50% in size
Details: HEK293 HTT promoter firefly luciferase reporter (activity 0% = vehicle and -100% = no light), 24 h; series mostly up to 57.5 µM; activity change, negative = inhibition: at the top concentration
Outline: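 Quantitative HTS used concentration series of up to 57.5 uM final on HEK293 luciferase reporter cells, 24 h at 37 degrees C. Readout was Dual-Glo firefly luminescence.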

Activity change, negative = inhibition, inactive:
COc1cccc(N(Cc2nnc3n2CCCCC3)C(=O)Nc2ccccc2)c1 -17.2%, Cc1nc2nc(NC(=O)c3ccc(C(C)(C)C)cc3)[nH]n2c(=O)c1Cl -1.98%, CCN(CC)CCOC(=O)C(Cc1cccc2ccccc12)CC1CCCO1 (centres undefined) -4.03%, CCOc1ccc(CNC(=O)c2ccc3c(c2)N(CC)CCS3)cc1 -3.27%, CCCCOc1ccc(C(=O)NCCc2sc(-c3ccc(OC)c(OC)c3)nc2C)cc1 -30.8%, O=C(Nc1cccc(O)c1)c1cc2nc(-c3ccc(Br)cc3)cc(C(F)(F)F)n2n1 -13.7%, COc1ccc(N2CCN(C(=O)CSc3c4c(nc5ccc(Cl)cc35)CCCC4)CC2)cc1 -24.3%, COc1ccc(CN(C)c2ccc(-c3nc(-c4ccccc4)no3)cc2[N+](=O)[O-])cc1 38.5%, COc1cccc(CCNC(=O)c2cnc3sc(N4CCCCCC4)nn3c2=O)c1 -9.84%, CCOC(=O)OCC/C(SC(=O)OCC)=C(\C)N(C=O)Cc1cnc(C)nc1N -3.34%, Cc1ccc(-n2nc3c(=O)n(CC(=O)NC(C)C)nc(C)c3c2C)cc1 -4.1%, CCC(CC)C(=O)Nc1ccc2nc(SCc3ccccc3)sc2c1 -21.6%, COc1ccc2c(CC(=O)Nc3ccc(C)cc3)coc2c1 2.82%, CS(=O)(=O)c1ncc(Cl)c(C(=O)Nc2c(C(=O)Nc3ccccc3)oc3ccccc23)n1 -12.8%, CCN(C(=O)CSc1nnc(-c2cc(OC)c(OC)c(OC)c2)o1)c1ccccc1 -25.4%, Clc1ccc(CCNc2nc3ccccc3c3nc(-c4ccccc4)nn23)cc1 -1.53%, Cc1ccc(C(=O)N(Cc2ccco2)Cc2ccco2)cc1 -0.218%, CCOc1cc(CNC(=O)c2ccccc2NC(=O)c2nsc3ccccc23)ccc1OC 20.4%, CCOc1ccc(NC(=O)Cn2cc(C(=O)c3cccs3)c3ccccc32)cc1 -15.8%, CCOc1cccc(CC(=O)NCc2ccc3c(c2)CCN3C(=O)c2ccc(F)cc2)c1OCC -16%, CC1(C)S[C@@H]2[C@H](NC(=O)C(C(=O)O)c3ccccc3)C(=O)N2[C@H]1C(=O)O (some centres undefined) -1.56%, COc1cccc(-c2nc3c(c(SCc4ccccc4)n2)Cc2c(CO)cnc(C)c2O3)c1 2.54%, NC(=O)c1cc(S(=O)(=O)NCc2ccccc2)cs1 -16.8%, CCCn1c(=O)n(-c2ccccc2)c(=O)c2sc3ccccc3c21 -20.5%, CN(C(=O)CCNC(=O)Cn1cnc2ccccc2c1=O)c1ccccc1F -2.9%, C=CCc1c(C)nc2nc(SCC(=O)Nc3ccccc3CC)nn2c1C -1.16%, CCOC(=O)CSc1nc2cc3c(cc2c(=O)n1CCCC(=O)NCc1ccc2c(c1)OCO2)OCO3 -17.8%, C=Cc1ccc(CSc2nc(-c3ccc(OC)cc3)nc3c2Cc2c(CO)cnc(C)c2O3)cc1 -14.5%, CC(C)Cc1nn2c(=O)cc(COC(=O)c3cccc(NC(=O)CCc4ccccc4)c3)nc2s1 -5.94%, COc1ccccc1C(=O)Nc1nc2ccc(S(=O)(=O)N3CCCC3)cc2s1 -14.4%, NCCc1nnc(SCc2ccc(Cl)cc2)o1 -1.51%, COc1ccc(C(=O)CN2C(=O)N(c3cc(C)cc(C)c3)S(=O)(=O)c3ccccc32)cc1 -25.1%, CCCCC(=O)Nc1cccc(OCc2cc(=O)n3ccccc3n2)c1 49.2%, Cc1ccc(Nc2c(-c3ccc(C)cc3)nc3cnccn23)cc1 -21.6%, COc1ccccc1CNC(=O)Cn1ncc2c(=O)oc3ccc(C)cc3c21 8.06%, Cc1ccccc1CS(=O)(=O)Cc1ccc(C(=O)NCCc2ccccc2)o1 -22.4%, CCOC(=O)c1ccc(Nc2c(-c3ccc(O)cc3)nc3nc[nH]n23)cc1 -11.3%, CCOC(=O)C1CCCN(c2ncnc3c2cnn3-c2ccc(C)c(Cl)c2)C1 (centres undefined) -8.2%, Cc1ccc(NC(=O)CSc2nc3c(c(=O)[nH]2)CN(Cc2ccc4c(c2)OCO4)CC3)cc1C -8.61%, Cn1c(=O)c2c(SCC(=O)NCc3ccco3)nc(-c3ccccc3Cl)nc2n(C)c1=O -20.1%, CC(C)c1ccc(CNCCSc2nnnn2C)cc1 -6.3%, CC(=O)Nc1c(C)nn(-c2ccccc2)c1N1CCC(C(=O)Nc2cc(Cl)ccc2C)CC1 4.13%, CCOc1ccc(NC(=O)C(C)Sc2nnc3cc(C)c4ccccc4n23)cc1 (centres undefined) -0.34%, C=C[C@@]1(C)CC(=O)[C@]2(O)[C@@]3(C)[C@@H](O)CCC(C)(C)[C@@H]3[C@H](O)[C@H](OC(C)=O)[C@@]2(C)O1 -1.54%, O=C(O)[C@@H]1CSCN1 -5.95%, Cc1cccc(NC(=O)C(=O)NCC(c2cccnc2)N2CCOCC2)c1 (centres undefined) -7.66%, CCCOc1ccc(C2c3c(-c4ccccc4O)n[nH]c3C(=O)N2Cc2ccncc2)cc1OCC (centres undefined) -23.9%, Cc1cc2nc3ccc(=[N+](C)C)cc-3sc2cc1N -11.8%, COc1ccc(C)cc1NC(=O)C(=O)NCCc1csc(-c2ccc(C)cc2)n1 6.08%
